# Test system: A. baumannii RUH134 persisters
# Test: Persister killing assay, isolated persister fraction of A. baumannii RUH134
# Format: cell-based, Acinetobacter baumannii
# Conditions: 30× MIC
# Text: Planktonic persister cells were isolated from a stationary-phase culture as described previously (Liebens V, Defraine V, Van der Leyden A, De Groote V N, Fierro C, Beullens S, Verstraeten N, Kint C, Jans A, Frangipani E, Visa P, Marchal K, Versées W, Fauvart M, Michiels J. 2014. A putative de-N-acetylase of the PIG-L superfamily affects fluoroquinolone tolerance in Pseudomonas aeruginosa. Pathogen. Dis. 71:39-54.) with minor modifications. An overnight culture of P. aeruginosa PA14, PAl255 (a cystic fibrosis isolate), Escherichia coil UTI-89 (isolate from chronic urinary tract infection) and Acinetobacter baumannii RUH134 (reference strain for global clone 2) was diluted 100×in 50 ml 1:20 Trypticase soy broth (TSB). After overnight growth at 37° C., the cultures were treated with either 10 μg/ml ofloxacin (P. aeruginosa strains), 200 μg/ml tobramycin (A. baumannii) or 200 μg/ml amikacin (E. coli) for 5 h at 37° C., while shaking at 200 rpm. The antibiotic concentrations were chosen to allow only persister cells to survive, based on previous time-kill curves. The persister fractions were isolated by centrifugation (5,250× g for 15 min at 4° C.), and the cell pellet was washed twice with 20 mM HEPES (pH 7.4). Prior to treatment, the cells were resuspended in a ten-fold reduced volume of 20 mM HEPES (pH 7.4) to concentrate the persisters.
# A persister killing assay was performed as described previously (Liebens et al., 2014), with minor modifications. A volume of 100 μl of the isolated persister fraction was mixed with either the polypeptide according to SEQ ID NO: 124, 125, 126 or ciprofloxacin (final concentrations of 10× or 30× MIC against the respective strains), in the absence or presence of 0.5 mM EDTA-Na2 (final concentration) up to a final volume of 200 μl. Control treatments with 20 mM HEPES (pH 7.4), 0.5 mM EDTA, or ofloxacin/tobramycin/amikacin (30× and 10× MIC) were performed in parallel. […] The number of persisters was determined after 72 h of incubation to allow for complete resuscitation of all surviving persisters.
molecule,measurement,setting,value
"SEQ ID NO: 125: polypeptide according to SEQ ID NO: 125, comprising a peptidoglycan hydrolase (protein, CecropinA(A. aegyptii)-OBPlyshis) MGGLKKLGKKLEGAGKRVFNAAEKALPVVAGAKALRKGSKNSEKNASIIMSIQRTLASLSLYGGRIDGLFGEKCRGAIILMLNKVYPNFSTNKLPSNTYEAESVFTFLQTALAGVGLYTITIDGKWGGTSQGAIDALVKSYRQITEAERAGSTLPLGLATVMSKHMSIEQLRAMLPTDRQGYAEVYIDPLNETMDIFEINTPLRIAHFMAQILHETACFKYTEELASGKAYEGRADLGNTRPGDGPLFKGRGLLQITGRLNYVKCQVYLREKLKDPTFDITSSVTCAQQLSESPLLAALASGYFWRFIKPKLNETADKDDIYWVSVYVNGYAKQANPYYPNRDKEPNHMKERVQMLAVTKKALGIVLEHHHHHH",effect on persisters,"alone, without EDTA",did not strongly affect persisters
same,effect on persisters,with 0.5 mM EDTA,strong reduction
same,reduction of persisters in comparison to 0.5 mM EDTA/Tobramycin control,with 0.5 mM EDTA,approximately 1.8 log

# — patent US20170106058A1, “PHARMACEUTICAL COMPOSITION AGAINST CHRONIC BACTERIAL INFECTIONS” (Lysando AG, priority 2014, published 2017)
